Measured values reported in ChEMBL document CHEMBL4888484, “Replenishing the malaria drug discovery pipeline: Screening and hit evaluation of the MMV Hit Generation Library 1 (HGL1) against asexual blood stage Plasmodium falciparum ,using a nano luciferase reporter read-out” (2022).
Screen size: about 150,000 compounds; about 540 (0.36%) showed an effect of 50% or more. The list shows a part of the results.

System: Plasmodium falciparum
Experiment: Primary screen in NF54 nanoGlo assay, in single point, at 2uM, 72h; a lower Z score goes with more inhibition
Type: functional, Erythrocyte
Conditions: timepoint 72 hour

Row | Compound | % Inhibition [%] | Z score
1 | C=C1CCC(C(=O)N2CCO[C@H]3CCC[C@H]32)CC1 | 5 | -0.65
2 | CC(C)(C)n1cc([C@H]2N(C(=O)c3cncc(Cl)c3)CC23CCOCC3)cn1 | -17 | 2.81
3 | N#Cc1c(N)cccc1OC(F)(F)F | -8 | 1.25
4 | O=C(NCCN1C(=O)CCC1=O)c1csc(-c2cccs2)n1 | -22 | 2.05
5 | CCCn1nc(C)cc1CN(C)C(=O)C[C@H]1CCc2nn(C)c(=O)n2CC1 | -3 | 0.46
6 | C[C@@]1(C(=O)NCc2noc(C(N)=O)n2)CCCCO1 | -1 | 0.21
7 | C[C@@H]1Oc2ccc(C(=O)C3CCN(Cc4cnc(C5CC5)o4)CC3)cc2NC1=O | -8 | 1.57
8 | CNC(=O)Cc1noc(CC2CCCCCC2)n1 | -6 | 0.65
9 | CCCn1nc(C2CCN(C(=O)OC(C)(C)C)CC2)c2c1CCOC2 | -4 | 0.87
10 | Cc1nc2ccc(N[C@@H](C)c3ccncc3F)cc2s1 | 6 | -0.81
11 | O=C(Nc1cccc(Oc2c(F)c(F)c(-c3c(F)c(F)c(Oc4cccc(NC(=O)c5ccccc5)c4)c(F)c3F)c(F)c2F)c1)c1ccccc1 | 36 | -4.6
12 | Cc1sc(-c2cc(C(F)(F)F)on2)cc1S(=O)(=O)NCc1ccc2c(c1)OCO2 | -2 | 0.38
13 | CN1C(=O)N(C)C2(c3ccccc3)N(CC(=O)O)C(=O)NC12c1ccccc1 (stereo unspecified) | 7 | -0.85
14 | CCCn1ncc(C(=O)N2CCC(c3nnc(Cn4cccn4)n3C)CC2)c1C | -5 | 0.83
15 | COc1cccc(-c2cc3n(n2)CCCN(C(=O)NCc2ccco2)C3)c1 | 0 | 0
16 | Cc1ccc2oc(-c3cccc(C(=O)N4CC[C@@](O)(CO)C4)c3)nc2c1 | -11 | 1.47
17 | O=C(NCc1ccncc1)[C@]1(F)CCCN(Cc2ccsc2)C1 | -13 | 1.15
18 | O=C(Cc1ccc(F)cc1)Nc1ccc(N2CCN(C(=O)c3cccc(Br)c3)CC2)nc1 | 2 | -0.31
19 | Cc1nc(CN2CCN(C(=O)C3CCC3)[C@H]3CS(=O)(=O)C[C@H]32)n(C)n1 | -1 | 0.17
20 | C[C@H]1CN=C2C=C(N3CCN(C(=O)Nc4ccccc4C(F)(F)F)CC3)N=CN21 | -11 | 1.77
21 | CC[C@H](Nc1nc(-c2ccco2)nc2c1CCNCC2)c1cccnc1 | -6 | 0.93
22 | Cc1ccc(NC2CC(C)OC2=O)cc1OCC(F)F (stereo unspecified) | -9 | 1.27

Row | Compound | % Inhibition [%] | Z score
23 | O=C(N[C@@H]1CN(Cc2ccco2)CC[C@@H]1CO)c1cccnc1 | 0 | -0.06
24 | CCc1ncnc(N(C)CCS(=O)(=O)CC)c1F | -12 | 1.1
25 | CCn1nnc(C)c1CN1CCC[C@H]1c1cccs1 | 1 | -0.16
26 | Cc1cc(COc2ccccc2)oc1C(=O)N[C@H]1C[C@H](c2cc(=O)[nH]cn2)C1 | -16 | 2.09
27 | Cc1cc(C(=O)N2CCC(c3nc(C4CCOCC4)no3)CC2)nn1C | -5 | 0.7
28 | Cc1cc(CCNC(=O)c2cccnc2)nn1C | -8 | 1.13
29 | Cc1ccc(-n2ccnc2)c(C(=O)Nc2cc(F)ccc2C)c1 | -3 | 0.32
30 | Cc1ccnc(N[C@@H](C)c2nccnc2C)c1 | 2 | -0.4
31 | Cc1cc(C)nc(CN(C)CC(=O)NC[C@H]2CCCO2)c1 | -6 | 1.14
32 | COc1ccc(C(=O)N2CCC[C@H]2c2cc(C(C)C)no2)cc1OC | -3 | 0.37
33 | COc1ccc(CC(=O)NCc2c(C)cc(C)nc2-c2ccc(OC)cc2)cc1 | -10 | 1.58
34 | COc1ccc(NC(=O)c2ccc3nn(CC(=O)Nc4ccc5c(c4)OCO5)c(=O)n3c2)cc1 | -30 | 2.68
35 | CC[C@@H](c1nc(Cn2cnc3ccccc32)no1)N(C)C | 4 | -0.77
36 | Cc1cccc(OCC(=O)NCC2(N3CCOCC3)CCCCC2)c1C | -9 | 0.82
37 | O=C(COCc1cccnc1)N1CCOC[C@@H]1CC1CCOCC1 | -6 | 0.64
38 | Cc1cccc(Oc2nc(C)nc(N3CCCC3)c2N)c1 | -7 | 1.33
39 | C=CCOc1ccc(C(F)(F)F)cc1C(=O)N1CC[S+]([O-])CC1 | 5 | -0.95
40 | CN(CCN(C)C1CCCC1)CCn1cc(Cl)cn1 | -4 | 0.69
41 | O=C(C=Cc1ccccc1)NO[C@@H]1CCCCO1 | 1 | -0.17
42 | COc1cccc(CN2CC[C@H](NC(=O)c3ccccn3)[C@@H](O)C2)c1OC | -4 | 0.78
43 | CN(Cc1nc(C2CC2)no1)C(=O)c1ccc(NC(=O)C2CCC2)cc1 | -7 | 1.15
